From PubChem BioAssay AID1159614 (National Center for Advancing Translational Sciences (NCATS), 2016)
Among all 45,000 compounds or so, about 65 (0.1%) were called active. The call rests on the fitted dose curve; in most records, active means well fitted activation curve with a large enough effect; inconclusive means small, poorly fitted or top-dose-only effect; inactive means no such curve, though single readings can be large or run the other way. The list shows a part of the results.

What follows are molecules tested against Galactocerebrosidase (Homo sapiens) (UniProt P54803) (assay: A Novel Cell-Based Assay to Identify Small Molecules for B -Galactocerebrosidase). Conditions: 145M-Twi-hGALC-G270D cells, HMU-beta-Gal fluorescence, 48 h; series mostly up to 57.5 µM; activation: at the top concentration.
Chain of UniProt P54803 (P54803 whole entry, looked up): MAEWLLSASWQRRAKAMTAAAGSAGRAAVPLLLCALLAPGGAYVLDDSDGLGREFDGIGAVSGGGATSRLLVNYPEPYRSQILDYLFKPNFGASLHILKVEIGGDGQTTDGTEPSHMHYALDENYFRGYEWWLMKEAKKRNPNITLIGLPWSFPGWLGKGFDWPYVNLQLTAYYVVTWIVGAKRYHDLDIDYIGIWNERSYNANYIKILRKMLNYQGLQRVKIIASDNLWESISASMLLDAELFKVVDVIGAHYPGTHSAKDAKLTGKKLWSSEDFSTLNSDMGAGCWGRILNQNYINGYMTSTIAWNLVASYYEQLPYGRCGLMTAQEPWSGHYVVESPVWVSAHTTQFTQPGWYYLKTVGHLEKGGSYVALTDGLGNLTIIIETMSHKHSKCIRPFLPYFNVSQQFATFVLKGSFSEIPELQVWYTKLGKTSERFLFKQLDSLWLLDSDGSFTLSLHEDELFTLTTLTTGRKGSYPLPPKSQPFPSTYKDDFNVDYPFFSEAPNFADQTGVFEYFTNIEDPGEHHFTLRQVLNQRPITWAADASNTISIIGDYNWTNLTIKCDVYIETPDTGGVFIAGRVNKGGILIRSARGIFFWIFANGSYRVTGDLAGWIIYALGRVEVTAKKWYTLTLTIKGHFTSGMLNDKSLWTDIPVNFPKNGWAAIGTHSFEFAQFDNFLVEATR
Outline: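 qHTS, 1536-well; 145M-Twi-hGALC-G270D cells (WT line also made) in DMEM/F12 + 10% FBS; compound incubation on live cells; HMU-β-gal 0.1 mM final, pH 5.2, NaTC; carbonate stop; fluorescence increase = enhanced residual activity.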
Further: 0% is about no effect; nearly all actives have a fitted effect of over 65% in size.

activation, inactive:
CCN(C(=O)CCc1nc(-c2ccc(C)cc2)no1)c1cccc(C(F)(F)F)c1 -2.68%
Cc1cc(NS(=O)(=O)c2ccc(N)cc2)no1 -11%
Cc1cccc(N2CCN(C(=O)c3nn(C)c4c3CS(=O)(=O)c3ccccc3-4)CC2)c1C -6.91%
COc1ccc(CNC(=O)c2ccc3c(O)c(S(=O)(=O)c4ccccc4)c(=O)[nH]c3c2)cc1 -15.3%
CS(=O)(=O)N(Cc1ccccc1)c1ccc(C(=O)Nc2cccc(Cl)c2)cc1 -0.581%
COc1ccc(NC(=O)c2c(NC(=O)C(F)(F)F)sc3c2CCCCC3)cc1 -12.5%
COc1ccc(Cn2ccc3nc(C)c(C(=O)N4CCN(c5cccc(OC)c5)CC4)cc3c2=O)cc1 -6.64%
CCCCC1CCC(C(=O)N2CC(=O)Nc3ccc(C)cc3C2c2ccc(F)cc2)CC1 (stereo unspecified) -8.45%
COc1cc(CNc2ccc3[nH]c(=O)[nH]c3c2)ccc1OCc1ccc(F)cc1Cl -16%
COC(=O)c1ccc2c(=O)n3nc(Nc4ccc(F)cc4F)sc3nc2c1 -16.9%
COc1ccc(CN2CCc3c(c(=O)n4ncc(C(=O)N5CCN(c6ccccc6F)CC5)c4n3C)C2)cc1 -27.1%
COc1ccccc1N1CCN(C(=O)c2cc(-c3ccc(C)c(F)c3)on2)CC1 -8.68%
O=C(Nc1cccc(C(F)(F)F)c1)Nc1nnc(N2CCCCCC2)s1 -13.6%
COCCCNC(=O)CN1C(=O)c2cccnc2Sc2ccccc21 -14.6%
CC(=O)c1cccc(NC(=O)CN2C(=O)CCc3cc(S(=O)(=O)N4CCCCC4)ccc32)c1 -6.21%
CCOc1ccc(S(=O)(=O)N2Cc3ccccc3CC2C(=O)Nc2ccc(NC(C)=O)cc2)cc1 (stereo unspecified) -25.4%
CCCCN1CC(c2nc3ccccc3n2CCCCOc2cc(C)cc(C)c2)CC1=O (stereo unspecified) -37.5%
CCN(CC)CCNC(=O)C(=O)Nc1c2c(nn1-c1ccc(F)cc1)CSC2 -12.4%
COc1cccc2cc(C(=O)Nc3ccc(CC(=O)O)cc3)c(=O)oc12 -9.95%
Cc1ccc(NC(=O)CSc2nc(-c3ccco3)cc(C(F)(F)F)n2)c(C)c1 -4.77%
Cc1cccc(NC(=O)CSc2nc3ccc(NC(=O)COc4ccccc4C)cc3s2)c1 -6.28%
CCCNC(=O)CCC(=O)N1Cc2cccc(OC)c2Oc2ncccc21 -10.2%
CC1CN(C(=O)NCc2ccccc2)c2cc(Cl)ccc2O1 (stereo unspecified) -9.34%
CCn1c2c(c(=O)n3ncc(C(=O)Nc4cc(Cl)ccc4OC)c13)CN(Cc1ccc(OC)cc1)CC2 -8.18%
Cc1c(C(=O)OCCOc2ccccc2)[nH]c2c1C(=O)CC(c1ccc(C(C)(C)C)cc1)C2 (stereo unspecified) -16.3%
O=C(NCc1ccc(Cl)cc1)C1CCN(c2nn3cc(-c4ccc(F)cc4)nc3s2)CC1 -0.469%
CCCCc1cc(=O)oc2cc(C)c3c(C(C)(C)C)coc3c12 -37.9%
COc1ccc(C)cc1NC(=O)N1CCN(S(=O)(=O)c2ccc3c(ccn3C)c2)CC1 -11.4%
COc1cccc(CNC(=O)c2cc(-c3ccc(Cl)s3)nc3ccccc23)c1 -5.15%
COc1ccc(NC(=O)c2nc(S(C)(=O)=O)ncc2N(Cc2ccc(C)cc2)Cc2ccco2)cc1Cl -8.2%
Cc1cccc(CSc2nc3c(sc4ccccc43)c(=O)n2CCC(=O)NC(C)C)c1 6.32%
Cc1ncc(CO)c2c1Oc1nc(-c3ccc(Cl)cc3)nc(SCC(=O)N3CCCCC3)c1C2 -7.8%
CC(C)(C)NC(=O)C1CCN(c2nc3ccccc3nc2C(F)(F)F)CC1 -0.56%
CCCCc1nnc(SCc2cc(=O)c3cc(F)ccc3[nH]2)n1C 7.57%
COc1ccc(-c2cc(C(F)(F)F)nc(SCCC(=O)Nc3ccc(OC)c(OC)c3)n2)cc1 -0.411%
Cc1ccc(NC(=O)c2sc3nc(-c4cccs4)ccc3c2N)cc1F -21.4%
CCN1CCC(N(Cc2ccc3c(c2)OCO3)C(=O)Nc2cc(F)ccc2F)CC1 -5.02%
CCN(CC)C(=O)c1c(NC(=O)c2cccc(C)c2)sc2c1CCC(C)C2 (stereo unspecified) -8.97%
O=C(O)c1ccccc1Nc1cc(Cl)ccc1C(=O)O 3.62% [at 23.8 µM]
O=c1[nH]c2cc(Br)ccc2n2cccc12 -12.7%
Cc1cc(C)c(-c2n[nH]c3c2C(c2ccccc2F)N(Cc2ccco2)C3=O)c(O)c1 (stereo unspecified) -16.6%
O=C(c1cnc(N2CCOCC2)c2ccccc12)N1CCN(c2ccccc2)CC1 4.01%
COc1ccc(CNC(=O)CN2C(=O)CC(c3ccc(C)c(C)c3)=Nc3ccccc32)cc1 -13.1%
Cc1ccc(-n2ncc3c(NC4CCCCCC4)ncnc32)cc1 1.14%
COc1ccc(C(=O)NCCn2cc(SCc3c(F)cccc3Cl)c3ccccc32)cc1 -2.92%
O=C(CN1C(=O)COc2ccc(S(=O)(=O)NC3CCCC3)cc21)NCc1ccc(Cl)cc1 -12.1%
CCOc1ccc(CNC(=O)CSc2nnc(C)c3c(C)n(-c4ccc(Cl)cc4)nc23)cc1 -18.2%
CCN(CC)CCSc1c(C(C)C)cnc2c1c(=O)n(C)c(=O)n2C -12.9%
COc1cc(NC(=O)N2CCc3c(sc4c3CCCC4)C2c2ccccc2)cc(OC)c1OC (stereo unspecified) -8.65%
COc1ccc(OC)c2sc(N3CCN(C(=O)c4ccco4)CC3)nc12 -0.265%
CN1CCN(C(=O)C(=O)Nc2c3c(nn2-c2ccc(Cl)cc2)CSC3)CC1 -6.24%
Cc1c(C(=O)N2CCC(C)CC2)c(S(=O)(=O)N(Cc2ccccc2)C(C)(C)C)c(C)n1C -0.944%
COC(=O)c1ccc(C(=O)OC)c(NC(=O)CN(c2ccccc2)S(=O)(=O)N(C)C)c1 -6.58%
COc1cccc(CNC(=O)CSC2=Nc3ccccc3N=C(c3ccc(F)cc3)C2)c1 -25.5%
CCOc1ccccc1CNC(=O)C1CCCN(c2nnc(C)c3c(C)n(-c4ccccc4)nc23)C1 (stereo unspecified) -6.83%
Cc1ccc(N2C(=O)CCSC23C(=O)N(Cc2ccccc2)c2ccccc23)cc1 (stereo unspecified) 2.29%
CCOCCCn1c(=N)c(C(=O)NCc2cccnc2)cc2c(=O)n3ccccc3nc21 -11%
CCN(CC)C(=O)c1ccc2c(c1)N(Cc1ccc(C(F)(F)F)cc1)C(=O)c1ccccc1S2 -8.71%
Cc1nn2c(=O)cc(COC(=O)c3cccc(NC(=O)COc4ccccc4C)c3)nc2s1 -9.13%
CCC(=O)NCCc1nc2cc(NC(=O)c3cccc(Br)c3)ccc2n1C -3.25%
Cc1ccc(NC(=O)Nc2nnc(N3CCCC3)s2)cc1C -22%
Cn1c(=O)c(C(=O)O)nn(-c2ccccc2)c1=O 21.9%
Cc1ccc(Cn2c3ccccc3c3cnn(CC(=O)Nc4cc(Cl)ccc4C)c(=O)c32)cc1 -9.74%
Cc1c(CNC2CCCCC2)c(C(=O)O)c(C)n1Cc1ccc(Cl)cc1 11.4%
Cc1cc(C)c(NC(=O)Cn2c(=O)n(CCC(=O)N3CCc4ccccc4C3)c(=O)c3ccccc32)c(C)c1 0.26%
CCN(CC)S(=O)(=O)c1ccc2c(c1)N(CC(=O)N1CCN(c3cccc(C)c3C)CC1)C(=O)CO2 -24.8%
Clc1ccc(-n2ncc3c(NC4CCCC4)ncnc32)cc1 -14.8%
COc1ccc(Nc2ncnc3sc4c(c23)CCCC4)cc1 -6.42%
Cn1nnnc1SCCCNCc1ccccc1OCc1ccc(Cl)cc1 -24.7%
O=C(NCc1ccccc1Cl)c1ccc(CS(=O)(=O)c2ccc(Br)cc2)o1 -0.172%
NS(=O)(=O)c1cc2c(cc1Cl)NC(CSCc1ccccc1)=NS2(=O)=O -13.9%
CC(NC(=O)Cn1ccc2cc(S(=O)(=O)N3CCCCCC3)ccc21)c1ccccc1 (stereo unspecified) -10.6%
CCOC(=O)C1CCCN(c2nc3c(S(=O)(=O)c4ccc(CC)cc4)nnn3c3ccc(Cl)cc23)C1 (stereo unspecified) 9.99%
COc1ccc(C)cc1NC(=O)Nc1nnc(N2CCCCC2)s1 7.7%
CCc1nn(CCCC(=O)NCc2ccc(OC(C)C)cc2)c(=O)c2cc3occc3n12 -8.57%
COc1ccc(N2CCN(C(=O)c3cccn3-c3nnc(N4CCCC4)s3)CC2)cc1 -6.06%
O=C(CSc1n[nH]c(-c2ccccc2Cl)n1)NCCc1ccccc1 -0.179%
CCOc1cc(CNS(=O)(=O)c2ccc3c(c2)C(C)(C)C(=O)N3)cc(OCC)c1OCC 5.73%
CCOC(=O)c1c(S(=O)(=O)NCC(=O)N(C)Cc2ccccc2)c(C)n(C)c1C 6.23%
CCN1CCN(c2ncnc3c2cnn3-c2cc(Cl)ccc2C)CC1 -14.8%
CC1CCN(S(=O)(=O)c2csc(C(N)=O)c2)CC1 -22%
COc1ccccc1N1CCN(c2ncnc3c2c(-c2ccccc2)cn3-c2cccc(C)c2)CC1 -16.9%
CCOC(=O)c1cnc(N2CCN(c3ccc(OC)cc3)CC2)c2ccccc12 -5.56%
CC(=O)Nc1nonc1-c1nnc(SCC(=O)Nc2ccc(C)c(Cl)c2)n1C -11.8%
CCOc1ccc2c(c1)c(=O)c(S(=O)(=O)c1ccc(C)cc1)cn2Cc1ccccc1Cl -19.6%
Cc1ccc(CSc2nc3cccnc3n2Cc2ccc(C(=O)NC3CCCCC3)cc2)cc1 -11.1%
CCCOc1ccc(C2c3c(oc4ccc(F)cc4c3=O)C(=O)N2CCc2ccc(OC)cc2)cc1 (stereo unspecified) -15%
O=C(CSc1oc(-c2ccc(F)cc2)nc1S(=O)(=O)c1ccc(Br)cc1)NC1CCCCC1 -9.56%
Cc1cccc(CN2CCC(CNc3ncnc4onc(-c5ccc(Cl)cc5)c34)CC2)c1 -11.3%
CCCCOC(=O)c1ccc(Nc2ncnc3c2cnn3-c2cccc(C)c2)cc1 -6.5%
COc1ccc(-c2nc(S(=O)(=O)c3ccc(C)cc3)c(N3CCCCC3)o2)cc1 -23.8%
Cc1ccc(CNC(=O)CN2C(=O)CC(c3ccc(C)c(C)c3)=Nc3ccccc32)cc1 -27.1%
O=C(NCc1cccc(Cl)c1)NCc1noc2ccccc12 -18.3%
COc1cccc(N2CCN(c3ncnc4c3c(-c3ccccc3)cn4-c3ccc(F)cc3)CC2)c1 -13%
CCCCN(CC)C(=O)CCCn1c(=O)c2cccn2c2ccccc21 -8.33%
Cc1ccc(-c2nnc3c4ccccc4c(C)nn23)cc1NC(=O)c1cccc(Br)c1 -7.24%
